{"source": "paper PMC12136788", "binders": {"B1": {"name": "chr11:75572625:75572772:+|3pUTR|ENSG00000149257|msi1|total|mutant (ssRNA)", "RNA": "GGGAGUUCUACAGUCCGACGAUCUCUGGCGUUGUGGGGAUGAACUUUUUGUUUUGUUUCUUCCUUUUUCCGUUCUUCAAAGACCGGGAGGGAAGGGGGAACAUGAGCCUUUGUUGCUAUCAAUCCAAGAACUUAUUUGUACAUCAACAGAGGAUUGAGCAUCA"}, "B2": {"name": "ENSG00000198774:stop:overlap|stop_codon|ENSG00000198774|stop_codon|NA|stop_codon (ssRNA)", "RNA": "GGGAGUUCUACAGUCCGACGAUCGUUCUAACCACAGUCAGGACUCCGAAACAACAGUAGGAGAUGUGGUGCUGUUGUCAACAUAGUUCCAAUGGCUCCUUUCUGACCUGCUUUCAUGUUUUAAUGUUUGUUUAAUUUAAUAGGCAACAGAGGAUUGAGCAUCA"}, "B3": {"name": "chr9:132694550:132694651:+|3pUTR|ENSG00000125484|unk|total|mutant (ssRNA)", "RNA": "GGGAGUUCUACAGUCCGACGAUCUUCCUGAAGAUUACAUAUCAGUGUCCUGCGUUUUUAUCUAAUAUCCGAGCUGAGGUUCCCCGGAAAAUUUUGAAGUGGGGAAGAUUAUGGAGAAAAUGAAAUGGAAAUUUGGGGAGGGUGCAACAGAGGAUUGAGCAUCA"}, "B4": {"name": "chr8:10764960:10765785:-|three_prime_utr|ENSG00000254093|control|control|control (ssRNA)", "RNA": "GGGAGUUCUACAGUCCGACGAUCCCGGGACUUCACCCUGAAGCCCAAAAAGAGGAGAGGGAAGAAAAAGCUGCAAAAACCAGUAGAGAUAGCAGAGGACGCUACACUAGAAGAAACGCUAGUGAAAAAGAAGAAGAAGAAAGACAACAGAGGAUUGAGCAUCA"}, "B5": {"name": "chr1:225495143:225495244:-|3pUTR|ENSG00000154380|msi1|FALSE|unique (ssRNA)", "RNA": "GGGAGUUCUACAGUCCGACGAUCACAUUAUUAUGAUGGUUUUUGUGCUCUUGUACGUUGGAUGUCUUAAGCUGAGUACAGUUUAGGGGAUCCUUUCUAAUGACAGGAAGGCACUGCUUUCCUCAACACUGUGAUCUGACCUGUCAACAGAGGAUUGAGCAUCA"}, "B6": {"name": "chr1:226361101:226361261:-|3pUTR|ENSG00000143799|msi1|FALSE|unique (ssRNA)", "RNA": "GGGAGUUCUACAGUCCGACGAUCUUUCUUGCCAGGUAGAUAAAACUGACAUAGAGAAAAGGCUGGAGAGAGAUUCUGUUGCAUAGACUAGUCCUAUGGAAAAAACCAAGCUUCGUUAGAAUGUCUGCCUUACUGGUUUCCCCACAACAGAGGAUUGAGCAUCA"}, "B7": {"name": "chr1:116393555:116393656:+|CDS|ENSG00000163399|msi1|total|mutant (ssRNA)", "RNA": "GGGAGUUCUACAGUCCGACGAUCCCCCAACACAUCGGAGCCCCAACACCUGUUGGUGAUGAAGGGCGCCCCAGAAAGGAUCCCCGACCGUUGCAGCUCUAUCCUCCUCCACGGCAAGGAGCAGCCCCUGGAUGAGGAGCUGAACAACAGAGGAUUGAGCAUCA"}, "B8": {"name": "chrX:103499925:103500756:-|CDS|ENSG00000172476|control|control|control (ssRNA)", "RNA": "GGGAGUUCUACAGUCCGACGAUCUGAGGUCAGCCCUCUGUGCAAUUUCAACAUCAUAGAGUCUUUCACGGAGCUGGCCAGGAUAGUGCUGCUGCGGCACAGGAUGAAUUGGCUCGGGAGGCCGAGCAAGGUACUGAGCUUGCACAACAGAGGAUUGAGCAUCA"}, "B9": {"name": "chr6:134169319:134169461:-|3pUTR|ENSG00000118515|unk|FALSE|unique (ssRNA)", "RNA": "GGGAGUUCUACAGUCCGACGAUCUGCAUUCCUGAUAAUUGUAUGUAUUGUAUAAAGAACGUCUGUACAUUGGGUUAUAACACUAGUAUAUUUAAACUUACAGGCUUAUUUGUAAUGUAAACCACCAUUUUAAUGUACUGUAAUCAACAGAGGAUUGAGCAUCA"}, "B10": {"name": "chr1:65389253:65389354:+|CDS|ENSG00000116675|unk|FALSE|unique (ssRNA)", "RNA": "GGGAGUUCUACAGUCCGACGAUCGUUAGAUGCAUGUGAUGUACCAGAAAAAUAUCCUCAGCUAUUUCAGGUGACACUGGAUGUAGAACUACAGCCCCAUGACAAAGUAAUAGACUUAACUCCACCAUGGGAACAUUACUGCACCAACAGAGGAUUGAGCAUCA"}, "B11": {"name": "chr14:75134463:75134564:-|3pUTR|ENSG00000170348|msi1|total|mutant (ssRNA)", "RNA": "GGGAGUUCUACAGUCCGACGAUCCUGUUUGGACUAUGUUUUCUUUUCUUCUCCCACUUGCUCAGCAGCUUGGGCUUCCAUUCCCGUUCUUUUACCAAGAUUUUUGUGUGACCAUGUUGACUUCAUUUGGAUUGCCCUCUUUCACAACAGAGGAUUGAGCAUCA"}, "B12": {"name": "ENSG00000249115:stop:overlap|stop_codon|ENSG00000249115|stop_codon|NA|stop_codon (ssRNA)", "RNA": "GGGAGUUCUACAGUCCGACGAUCACAGUCCACAGGUGAGAAGCAUAUGCUACAAGAUUCUCUUUCAUCCGAAAAAUGACUUGUAGAUCUUCUGCUCUAAGCCCAACCAGGUGCUGGGUGAUGCUGGGGACAAUGGGUCACAAGCAACAGAGGAUUGAGCAUCA"}, "B13": {"name": "ENSG00000104047:stop:overlap|stop_codon|ENSG00000104047|stop_codon|NA|stop_codon (ssRNA)", "RNA": "GGGAGUUCUACAGUCCGACGAUCACCAGUUGAUAAAGAAUGCCAAAUGCUCUGGAGAUAAGGAAACAGGAAAACUUACACAUUAGUUUUUAACAAGCCACUUAUGUCUUUUUAUUUUGCUAACAUUAAUAAACUUAUAUUUGUCAACAGAGGAUUGAGCAUCA"}, "B14": {"name": "chr4:119293926:119294030:+|3pUTR|ENSG00000145390|unk|total|mutant (ssRNA)", "RNA": "GGGAGUUCUACAGUCCGACGAUCGAUGGAAUUUAAUUUUGCUCCCCGAAUUUUUGUCUUCAGAAUAUCCCGUUAAGAUAAAUCCGGCCUUUGACUAUUACCGGUAUUCAUAAAUGCUACUUCCGCCAUGUAAGUUAAAAAGUUCAACAGAGGAUUGAGCAUCA"}, "B15": {"name": "chr4:155836688:155836857:-|CDS|ENSG00000256394|control|control|control (ssRNA)", "RNA": "GGGAGUUCUACAGUCCGACGAUCUAAGGAUUUAUGUACAGUAGGAACACAUAACUCUAGCUGCCCCGUUUCUUGUGAAGAAAUAGAAUACCCGGCCACUAUUUCUUAUUCCUCUUUUCCAAGUCAAAAAGCUUUGAAAUAUCUCAACAGAGGAUUGAGCAUCA"}, "B16": {"name": "chr2:53865134:53865235:-|3pUTR|ENSG00000068878|unk|FALSE|unique (ssRNA)", "RNA": "GGGAGUUCUACAGUCCGACGAUCGUCCUGUCAUUUCAUUCAUCUCAAAUUAUUUUGAAUUCUUCCCAAAUGGCUGCUGGAUUUAGGUGGUAAUAGGGGCUGUGGGCCAUAAAUCUGAAGCCUUGAGAACCUUGGGUCUGGAGACAACAGAGGAUUGAGCAUCA"}, "B17": {"name": "chr1:46316673:46316776:+|3pUTR|ENSG00000173660|unk|FALSE|unique (ssRNA)", "RNA": "GGGAGUUCUACAGUCCGACGAUCUGUUUCUUAUUUGUGUAACUGUAAGUUCACAUGAACCUCAUGGGUUUGGCUUAGGCUGGUAGCUUCUAUGUAAUUCGCAAUGAUUCCAUCUAAAUAAAAGUUCUAUGAUCUGCAAACCUGCAACAGAGGAUUGAGCAUCA"}, "B18": {"name": "chr5:147393259:147393361:-|3pUTR|ENSG00000113657|msi1_unk|total|mutant (ssRNA)", "RNA": "GGGAGUUCUACAGUCCGACGAUCAGACCCAACCAUUUCUUCCACCUGCUUGAUUGUGCCAGUGUUUGCUCAGGCCUCUUUCUCCGUGUUGCUUUCAAAUCCUUCUCUUUCCUGGGUUGGGAAGGCCAGGCAGGGACAGAGCAACAACAGAGGAUUGAGCAUCA"}, "B19": {"name": "chr17:81509976:81510077:-|3pUTR|ENSG00000184009|msi1|FALSE|unique (ssRNA)", "RNA": "GGGAGUUCUACAGUCCGACGAUCUCUCGAUUCUUUGAAGAGAUGACAACAAAUUUUGGUUUUCUACUGUUAUGUGAGAACAUUAGGCCCCAGCAACACGUCAUUGUGUAAGGAAAAAUAAAAGUGCUGCCGUAACCAAUGAAUCAACAGAGGAUUGAGCAUCA"}, "B20": {"name": "chr7:108502517:108502634:-|CDS|ENSG00000135241|unk|FALSE|unique (ssRNA)", "RNA": "GGGAGUUCUACAGUCCGACGAUCAUUAUUCCAUAUUUAUUACGACUGAGACAAAUUAAGGAUGAAACUCUUCAGGCUGCAGUUAGAGAAAUUUUGGCCCUAAUUGGCUAUGUGGAUCCAGUGAAAGGGAGAGGAAUCCGAAUUCAACAGAGGAUUGAGCAUCA"}, "B21": {"name": "chr7:20412513:20412614:+|3pUTR|ENSG00000105855|msi1|total|mutant (ssRNA)", "RNA": "GGGAGUUCUACAGUCCGACGAUCUCCUUAAAAAUCCAGAGUUUAUAUUUUUUUUAUACCCUCACUUGUUUGCACUAACUUUACCGUGGACCAAGGCUGUUACCACCGGAAGGGACAAACUUCCUUGCCGGCAACUCAGUGUUACAACAGAGGAUUGAGCAUCA"}, "B22": {"name": "chr8:93925380:93925481:+|3pUTR|ENSG00000164951|msi1|FALSE|unique (ssRNA)", "RNA": "GGGAGUUCUACAGUCCGACGAUCAUUUAUUUCUAAAUGUUUUGACUGGGCAUUUUUCUUUUAAUGAAAUAUGUGGACUGCUCUAGCAAACCCUAUUUUCAGCUACUAUUUGAAUAUUCUUGAACACCACCACUGAAGAGUUUCCAACAGAGGAUUGAGCAUCA"}}, "note": "Some of the results follow."}
{"target": "T1, UNK ZnF1-6 (called full-length) (human, UniProt Q9C0B0 30-357)", "T1 sequence": "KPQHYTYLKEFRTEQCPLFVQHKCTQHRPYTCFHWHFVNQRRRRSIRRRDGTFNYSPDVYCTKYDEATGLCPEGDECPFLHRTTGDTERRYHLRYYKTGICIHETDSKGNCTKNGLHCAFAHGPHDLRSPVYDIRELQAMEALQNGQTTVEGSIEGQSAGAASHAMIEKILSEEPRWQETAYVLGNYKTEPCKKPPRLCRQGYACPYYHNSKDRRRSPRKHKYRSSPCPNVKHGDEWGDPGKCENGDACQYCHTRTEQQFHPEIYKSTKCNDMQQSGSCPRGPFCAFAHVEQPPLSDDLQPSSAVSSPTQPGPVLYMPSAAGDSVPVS", "experiment": "nsRBNS (natural sequence RNA bind-n-seq); RBNS binding buffer (assumed for nsRBNS): 25 mM Tris pH 7.5, 150 mM KCl, 3 mM MgCl2, 0.01% Triton X-100, 500 ug/ml BSA, 20 U/ml SUPERase-In, 4 C; UNK is unkempt and MSI1 is Musashi-1; names of the RNAs are library labels; protein concentration not given here; high values mean tight binding", "units": {"binding signal": "enrichment R"}}
{"binder": "B1", "binding signal": 0.461}
{"binder": "B2", "binding signal": 0.722}
{"binder": "B3", "binding signal": 0.795}
{"binder": "B4", "binding signal": 0.856}
{"binder": "B5", "binding signal": 0.301}
{"binder": "B6", "binding signal": 0.839}
{"binder": "B7", "binding signal": 0.555}
{"binder": "B8", "binding signal": 0.72}
{"binder": "B9", "binding signal": 1.14}
{"binder": "B10", "binding signal": 0.901}
{"binder": "B11", "binding signal": 0.495}
{"binder": "B12", "binding signal": 0.79}
{"binder": "B13", "binding signal": 0.937}
{"binder": "B14", "binding signal": 0.524}
{"binder": "B15", "binding signal": 0.576}
{"binder": "B16", "binding signal": 0.689}
{"binder": "B17", "binding signal": 0.574}
{"binder": "B18", "binding signal": 0.641}
{"binder": "B19", "binding signal": 0.271}
{"binder": "B20", "binding signal": 1.1}
{"binder": "B21", "binding signal": 0.607}
{"binder": "B22", "binding signal": 0.718}
